{"source": "PubChem BioAssay AID1347165", "about": "(National Center for Advancing Translational Sciences (NCATS), 2019)", "note": "Out of some 220,000 compounds screened, about 5,700 (2.6%) were called active. The inconclusive results got no clear call from the source; some entries with a clear call stand among them for comparison. The call rests on the fitted dose curve; in most records, active means well fitted inhibition curve with a large enough effect; inconclusive means small, poorly fitted or top-dose-only effect; inactive means no such curve, though single readings can be large or run the other way. Where the call is inconclusive, the potency comes from a doubtful curve fit. Potency means the concentration at half of the fitted maximal effect; tags describe the fitted curve by direction and shape."}
{"target": "Lysine-specific demethylase 5B (Homo sapiens) (UniProt Q9UGL1)", "sequence (Q9UGL1 whole entry, looked up)": "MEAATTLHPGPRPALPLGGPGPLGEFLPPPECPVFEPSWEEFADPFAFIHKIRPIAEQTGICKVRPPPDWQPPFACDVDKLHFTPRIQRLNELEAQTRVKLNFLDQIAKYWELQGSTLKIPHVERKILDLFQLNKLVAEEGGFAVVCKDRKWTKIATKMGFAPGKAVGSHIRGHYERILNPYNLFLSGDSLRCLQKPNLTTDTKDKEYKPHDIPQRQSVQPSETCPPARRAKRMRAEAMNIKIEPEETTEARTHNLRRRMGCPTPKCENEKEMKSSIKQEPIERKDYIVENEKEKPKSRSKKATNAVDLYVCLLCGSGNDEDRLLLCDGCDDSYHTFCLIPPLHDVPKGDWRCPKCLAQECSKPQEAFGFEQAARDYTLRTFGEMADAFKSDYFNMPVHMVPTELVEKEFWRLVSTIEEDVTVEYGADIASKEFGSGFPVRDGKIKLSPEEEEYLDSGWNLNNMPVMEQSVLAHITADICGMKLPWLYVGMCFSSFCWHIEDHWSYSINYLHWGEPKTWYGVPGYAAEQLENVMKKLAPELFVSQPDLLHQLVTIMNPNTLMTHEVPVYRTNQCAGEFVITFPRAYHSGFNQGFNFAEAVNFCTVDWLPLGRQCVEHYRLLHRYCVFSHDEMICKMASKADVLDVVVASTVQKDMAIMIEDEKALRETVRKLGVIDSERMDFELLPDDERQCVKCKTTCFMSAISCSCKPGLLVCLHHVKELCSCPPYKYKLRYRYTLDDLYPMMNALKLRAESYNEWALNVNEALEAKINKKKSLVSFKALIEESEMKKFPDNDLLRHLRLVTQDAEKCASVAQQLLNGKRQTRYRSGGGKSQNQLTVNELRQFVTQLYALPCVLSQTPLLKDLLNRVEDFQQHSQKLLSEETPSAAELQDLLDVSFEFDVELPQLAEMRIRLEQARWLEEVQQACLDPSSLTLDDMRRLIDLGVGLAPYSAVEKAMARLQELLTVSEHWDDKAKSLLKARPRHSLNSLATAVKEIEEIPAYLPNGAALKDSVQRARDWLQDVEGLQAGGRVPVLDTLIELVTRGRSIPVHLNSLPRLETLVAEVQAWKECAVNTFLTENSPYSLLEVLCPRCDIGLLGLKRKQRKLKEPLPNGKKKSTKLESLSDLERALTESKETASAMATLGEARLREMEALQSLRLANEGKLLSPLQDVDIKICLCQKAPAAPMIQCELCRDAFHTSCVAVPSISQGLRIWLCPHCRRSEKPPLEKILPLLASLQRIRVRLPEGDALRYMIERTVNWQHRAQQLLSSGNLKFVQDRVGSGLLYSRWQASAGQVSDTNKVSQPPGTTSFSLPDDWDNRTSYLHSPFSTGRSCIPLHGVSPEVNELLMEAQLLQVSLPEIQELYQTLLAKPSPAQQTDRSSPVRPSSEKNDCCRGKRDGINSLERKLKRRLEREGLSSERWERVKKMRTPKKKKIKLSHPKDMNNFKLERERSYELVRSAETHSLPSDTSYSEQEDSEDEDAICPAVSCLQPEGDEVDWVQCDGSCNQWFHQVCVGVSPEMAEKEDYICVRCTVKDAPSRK", "experiment": "Primary screen for KDM5B Histone Demethylases FDH-coupled qHTS; further: nearly all actives have a fitted effect of over 70% in size; on activity change, negative = inhibition: 0% is about no effect", "settings": "FDH-coupled NADH fluorescence (FDH is formaldehyde dehydrogenase); activity change, negative = inhibition: at 57.7 µM (top of the series) unless noted", "method_in_brief": "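Compound dilutions met 200 nM (final) KDM5BΔAP for 10 min at room temperature before substrate addition. The substrate mix held 12.5 µM H3K4me3 with cofactors 25 µM α-ketoglutarate and 50 µM Fe²⁺. NADH signal gain over 30 min defined activity.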"}
{"molecule": "COc1ccc(-c2cc3c(=O)n(CCNC(=O)c4cccc(N(C)C)c4)ccn3n2)cc1", "Potency": "active: 35.5 µM"}
{"molecule": "CN(C)C(CNC(=O)Cn1cnc2c1c(=O)n(C)c(=O)n2C)c1cccs1", "note": "(configuration not stated)", "Potency": "inactive"}
{"molecule": "O=C(NCCc1ccc(Cl)cc1)C(=O)NCC(c1ccco1)S(=O)(=O)c1ccc(Cl)cc1", "note": "(configuration not stated)", "Potency": "inactive"}
{"molecule": "O=C(NC1CCN(c2cc(-c3ccc(Cl)cc3)[nH]n2)C1)c1cccnc1", "note": "(configuration not stated)", "Potency": "inconclusive: 10 µM [inhibitor, partial curve]"}
{"molecule": "O=S(=O)(NCc1ccc(N2CCCC2)nc1)c1ccccc1", "Potency": "inconclusive: 28.2 µM [inhibitor, single point]"}
{"molecule": "COc1cc(NC(=O)CCc2c(C)nc3cc(-c4ccccc4)nn3c2C)cc(OC)c1OC", "Potency": "inconclusive: 5.62 µM [inhibitor, partial curve, poor fit]"}
{"molecule": "COc1ccc(C2=NOC(C(=O)Nc3cc(C)nn3-c3ccccc3)C2)cc1", "note": "(configuration not stated)", "Potency": "inactive"}
{"molecule": "CSc1ccc(/C=C/c2nc3ccccc3n2S(=O)(=O)c2cccc(Cl)c2)cc1", "Potency": "inconclusive: 28.2 µM [inhibitor, partial curve, poor fit]"}
{"molecule": "N#Cc1cccc(/C=C/C(=O)c2ccsc2)c1", "Potency": "inconclusive: 25.1 µM [inhibitor, single point]"}
{"molecule": "Cc1cc(Cn2cc3c4c(cccc42)[C@H](CC(C)C)N[C@H](C(=O)NCC2CC2)C3)no1", "Potency": "inconclusive: 14.1 µM [inhibitor, partial curve]"}
{"molecule": "COc1ccc(N2CC(c3noc(-c4cc(OC)cc(OC)c4)n3)CC2=O)cc1", "note": "(configuration not stated)", "Potency": "inconclusive: 35.5 µM [inhibitor, single point]"}
{"molecule": "c1ccc(CN2CCNc3cnc(-c4ccc(N5CCOCC5)cc4)cc3C2)cc1", "Potency": "active: 35.5 µM"}
{"molecule": "CC(=O)CSc1nnc2cc(C)c3cc(C)cc(C)c3n12", "Potency": "inconclusive: 28.2 µM [inhibitor, partial curve, poor fit]"}
{"molecule": "O=C(CSc1nnc(SCc2ccc(F)cc2)s1)Nc1ccc(C(=O)O)cc1", "Potency": "inconclusive: 20 µM [inhibitor, single point]"}
{"molecule": "CCCc1cc(=O)oc2cc(C)cc(OCC(=O)NCc3cccnc3)c12", "Potency": "inconclusive: 20 µM [inhibitor, partial curve, poor fit]"}
{"molecule": "COc1ccc(Br)cc1/C=C1\\Oc2ccccc2NC1=O", "Potency": "inconclusive: 20 µM [inhibitor, partial curve, poor fit]"}
{"molecule": "COc1ccc([C@@H](NC(=O)c2ccc3nccn3c2)C2CC(O)C2)cn1", "note": "(some centres not stated)", "Potency": "active: 20 µM"}
{"molecule": "CCOC(=O)c1ccc(NC(=O)CSc2cc(=O)n(CC)c3ccccc23)cc1", "activity change, negative = inhibition": "inconclusive: -32% [inhibitor]"}
{"molecule": "Cc1ccc(S(=O)(=O)c2cn(Cc3cccc(C)c3)c3cc4c(cc3c2=O)OCO4)cc1", "Potency": "inconclusive: 35.5 µM [inhibitor, single point]"}
{"molecule": "CC1CCN(CC2CCCNCC2)CC1", "note": "(configuration not stated)", "Potency": "inconclusive: 11.2 µM [inhibitor, partial curve, poor fit]"}
{"molecule": "NC(c1ccccc1)c1nnc2n1CCN(C(=O)N1CCCC1)C2", "note": "(configuration not stated)", "Potency": "inconclusive: 89.1 µM [inhibitor, partial curve]"}
{"molecule": "COC(=O)c1cc(-c2ccc(OC)c(OC)c2)nc2onc(C(C)C)c12", "Potency": "inconclusive: 35.5 µM [inhibitor, single point]"}
{"molecule": "O=C(N/N=C/c1ccc(O)cc1O)C1CC1", "Potency": "inconclusive: 35.5 µM [inhibitor, partial curve, poor fit]"}
{"molecule": "Nn1c(SCc2ncc(-c3ccccc3)o2)nnc1-c1ccccc1F", "Potency": "inactive"}
{"molecule": "CN1CC2(CCN(C(=O)c3cccnc3)CC2)CC1C(=O)N1CCOCC1", "note": "(configuration not stated)", "Potency": "inactive"}
{"molecule": "O=c1[nH]c(=O)n(CC2CCCO2)c2nccc(-c3cccc4ccccc34)c12", "note": "(configuration not stated)", "Potency": "inconclusive: 8.91 µM [inhibitor, partial curve, poor fit]"}
{"molecule": "Nc1nccnc1C(=O)NCc1ccc(Cn2cnc3ccccc32)cc1", "Potency": "inconclusive: 31.6 µM [inhibitor, partial curve, poor fit]"}
{"molecule": "Cc1ccc(-c2noc([C@@H]3Cc4nc[nH]c4CN3Cc3cccs3)n2)cc1", "Potency": "inconclusive: 20 µM [inhibitor, partial curve]"}
{"molecule": "Cc1ccc(NC(=O)CC(C)(C(=O)O)c2ccccc2)c(O)c1", "note": "(configuration not stated)", "Potency": "inactive"}
{"molecule": "CCCCCCn1nc(C(=O)OCC(=O)N(C)c2ccccc2)c2ccccc2c1=O", "Potency": "inactive"}
{"molecule": "CC(=O)N1CCC(N2C[C@@H]3C[C@H]2C(=O)N(Cc2ccccn2)c2ccccc2O3)CC1", "Potency": "inconclusive: 31.6 µM [inhibitor, single point]"}
{"molecule": "COc1ccc(-c2nc(C)nc3c2CN([S+](=O)([O-])c2ccccc2)CC3)cc1", "Potency": "inconclusive: 63.1 µM [inhibitor, partial curve, poor fit]"}
{"molecule": "CCNc1nc(SCC(=O)NC(C)(C#N)C(C)C)nc2ccccc12", "note": "(configuration not stated)", "Potency": "inconclusive: 28.2 µM [inhibitor, partial curve, poor fit]"}
{"molecule": "Cc1cccc(Cc2c(C)nc3c(-c4ccccc4)c(C)[nH]n3c2=O)c1", "Potency": "inconclusive: 17.8 µM [inhibitor, partial curve, poor fit]"}
{"molecule": "CCOC(=O)c1ccccc1NC(=O)Cn1c(N(C)Cc2ccccc2)nc(C)cc1=O", "Potency": "active: 15.8 µM"}
{"molecule": "CCCc1ccc(NC(=O)Cn2cnc3c2c(=O)n(C)c(=O)n3C)cc1", "Potency": "inactive"}
{"molecule": "CCC(C)Nc1ncnc2c1cnn2-c1ccc(F)cc1", "note": "(configuration not stated)", "Potency": "inconclusive: 35.5 µM [inhibitor, single point]"}
{"molecule": "O=C(C[C@@H]1CCNC[C@@H]1Cc1cc(-c2ccc(F)cc2)on1)NCc1ccco1", "Potency": "inconclusive: 35.5 µM [inhibitor, partial curve, poor fit]"}
{"molecule": "CC(C)=CC1C(C(=O)NCc2ccccc2OC(F)F)C1(C)C", "note": "(configuration not stated)", "Potency": "inactive"}
{"molecule": "CCNC(=O)c1cc(-c2ccc(OC)cc2OC)nc2ccccc12", "Potency": "inconclusive: 25.1 µM [inhibitor, single point]"}
{"molecule": "CN(Cc1cccs1)C(=O)c1cccc(S(=O)(=O)N(C)C)c1", "Potency": "inactive"}
{"molecule": "COc1ccc(-c2nc(CSCC(=O)N3CCN(c4ccc(F)cc4)CC3)c(C)o2)cc1", "Potency": "inconclusive: 3.98 µM [inhibitor, partial curve, poor fit]"}
{"molecule": "CCC(=O)Nc1ccc(-c2nc3ccc(C)cc3o2)cc1", "Potency": "inconclusive: 14.1 µM [inhibitor, partial curve, poor fit]"}
{"molecule": "COc1ccc(C(=O)N2CCCC(n3cc(-c4nc(C(C)C)no4)nn3)C2)cc1", "note": "(configuration not stated)", "Potency": "inactive"}
{"molecule": "O=C(Cn1ncc2c3ccccc3n(Cc3ccc(F)cc3)c2c1=O)NCc1cccs1", "Potency": "inconclusive: 17.8 µM [inhibitor, single point]"}
{"molecule": "Cc1nn(Cc2ccccc2)c(C)c1[C@@H]1C=C[C@@H](NC(=O)NC2CCCCC2)C1", "Potency": "inconclusive: 31.6 µM [inhibitor, partial curve, poor fit]"}
{"molecule": "O=C(Cn1nc(-c2ccccc2)c2ccccc2c1=O)Nc1cccc(C(F)(F)F)c1", "Potency": "inactive"}
{"molecule": "Cn1cncc1CNC(=O)c1nc(-c2cccc(N3CCOCC3)c2)cc2c1ccn2C", "Potency": "inactive"}
{"molecule": "COc1ccc(CCNCC(O)COc2cccc(Br)c2)cc1OC", "note": "(configuration not stated)", "Potency": "inconclusive: 35.5 µM [inhibitor, partial curve, poor fit]"}
{"molecule": "O=C1CC(c2ccccc2)N(Cc2ccncc2)CCCN(Cc2cccnc2)CCN1", "note": "(configuration not stated)", "Potency": "inconclusive: 35.5 µM [inhibitor, single point]"}
{"molecule": "COc1ccc([C@@H](NC(=O)c2sc(C)nc2C)C2CC(O)C2)cn1", "note": "(some centres not stated)", "Potency": "inactive"}
{"molecule": "O=C(NCc1ccccc1)C1CCN(S(=O)(=O)c2ccc(OC(F)(F)F)cc2)CC1", "Potency": "inactive"}
{"molecule": "CC1=NS(=O)(=O)N(C)C=C1C(=O)OCc1nc(C2CCCCC2)no1", "Potency": "inactive"}
{"molecule": "O=C(COC(=O)c1cc([N+](=O)[O-])ccc1Cl)c1cc2ccccc2o1", "Potency": "inactive"}
{"molecule": "COc1cccc(CN2CCC3(COc4ccccc4C(=O)N3)C2)c1", "note": "(configuration not stated)", "Potency": "inconclusive: 39.8 µM [inhibitor, single point]"}
{"molecule": "COc1cccc(C(=O)Nc2nnc(-c3ccc(OC)cc3OC)s2)c1", "Potency": "inconclusive: 31.6 µM [inhibitor, partial curve, poor fit]"}
{"molecule": "CCn1nccc1C(=O)N1CCC(N2CC3CC(C2)[C@H]2CCCC(=O)N2C3)CC1", "note": "(some centres not stated)", "Potency": "inconclusive: 15.8 µM [inhibitor, partial curve]"}
{"molecule": "COc1cccc(CN2C(=O)CCCCC2C(=O)NCc2cn[nH]c2C)c1", "note": "(configuration not stated)", "Potency": "inactive"}
{"molecule": "O=C(C1CCCN(Cc2cccc3ccccc23)C1)N1CCc2ccccc2C1", "note": "(configuration not stated)", "Potency": "inconclusive: 35.5 µM [inhibitor, single point]"}
{"molecule": "Fc1ccc(-c2nc(Nc3cccc(C(F)(F)F)c3)nc3c2COc2ccccc2-3)cc1", "Potency": "inconclusive: 15.8 µM [inhibitor, partial curve, poor fit]"}
{"molecule": "COc1cccc(C2CCN(Cc3cn(-c4ccccc4)nn3)C2)c1OC", "note": "(configuration not stated)", "Potency": "inactive"}
{"molecule": "CCc1noc(CS(=O)(=O)Cc2cc(C)ccc2C)n1", "Potency": "inactive"}
{"molecule": "COc1ccc(OC)c(C(=O)COC(=O)Cc2ccc(Cl)cc2)c1", "Potency": "inconclusive: 39.8 µM [inhibitor, single point]"}
{"molecule": "Cc1ccc(CSc2nnc3[nH]c(=O)cc(-c4ccccc4)n23)cc1", "Potency": "inconclusive: 35.5 µM [inhibitor, single point]"}
{"molecule": "O=C1N(c2ccccc2)c2ccccc2C12CCN(Cc1cccc3ccccc13)C2", "note": "(configuration not stated)", "Potency": "inconclusive: 44.7 µM [inhibitor, partial curve, poor fit]"}
{"molecule": "Cc1nonc1OCCn1ccnc1-c1cn(C2CCNCC2)nn1", "Potency": "inconclusive: 17.8 µM [inhibitor, single point]"}
{"molecule": "CCOC(=O)c1c(NC(=O)c2ccc(OC)cc2)sc2c1CCCCC2", "Potency": "inconclusive: 25.1 µM [inhibitor, partial curve, poor fit]"}
